Assay results from PMC4336329 (PLoS ONE, 2015).
Out of some 310,000 compounds screened, about 2,200 (0.71%) showed an effect of 50% or more. The effect is printed as a negative number. This is one part of the list.

Target: human ether-à-go-go-related gene (hERG) potassium channel (human, UniProt Q12809)
Experiment: primary screen, population patch clamp on CHO cells stably expressing hERG

Chain of human ether-à-go-go-related gene (hERG) potassium channel (Q12809 whole entry, looked up): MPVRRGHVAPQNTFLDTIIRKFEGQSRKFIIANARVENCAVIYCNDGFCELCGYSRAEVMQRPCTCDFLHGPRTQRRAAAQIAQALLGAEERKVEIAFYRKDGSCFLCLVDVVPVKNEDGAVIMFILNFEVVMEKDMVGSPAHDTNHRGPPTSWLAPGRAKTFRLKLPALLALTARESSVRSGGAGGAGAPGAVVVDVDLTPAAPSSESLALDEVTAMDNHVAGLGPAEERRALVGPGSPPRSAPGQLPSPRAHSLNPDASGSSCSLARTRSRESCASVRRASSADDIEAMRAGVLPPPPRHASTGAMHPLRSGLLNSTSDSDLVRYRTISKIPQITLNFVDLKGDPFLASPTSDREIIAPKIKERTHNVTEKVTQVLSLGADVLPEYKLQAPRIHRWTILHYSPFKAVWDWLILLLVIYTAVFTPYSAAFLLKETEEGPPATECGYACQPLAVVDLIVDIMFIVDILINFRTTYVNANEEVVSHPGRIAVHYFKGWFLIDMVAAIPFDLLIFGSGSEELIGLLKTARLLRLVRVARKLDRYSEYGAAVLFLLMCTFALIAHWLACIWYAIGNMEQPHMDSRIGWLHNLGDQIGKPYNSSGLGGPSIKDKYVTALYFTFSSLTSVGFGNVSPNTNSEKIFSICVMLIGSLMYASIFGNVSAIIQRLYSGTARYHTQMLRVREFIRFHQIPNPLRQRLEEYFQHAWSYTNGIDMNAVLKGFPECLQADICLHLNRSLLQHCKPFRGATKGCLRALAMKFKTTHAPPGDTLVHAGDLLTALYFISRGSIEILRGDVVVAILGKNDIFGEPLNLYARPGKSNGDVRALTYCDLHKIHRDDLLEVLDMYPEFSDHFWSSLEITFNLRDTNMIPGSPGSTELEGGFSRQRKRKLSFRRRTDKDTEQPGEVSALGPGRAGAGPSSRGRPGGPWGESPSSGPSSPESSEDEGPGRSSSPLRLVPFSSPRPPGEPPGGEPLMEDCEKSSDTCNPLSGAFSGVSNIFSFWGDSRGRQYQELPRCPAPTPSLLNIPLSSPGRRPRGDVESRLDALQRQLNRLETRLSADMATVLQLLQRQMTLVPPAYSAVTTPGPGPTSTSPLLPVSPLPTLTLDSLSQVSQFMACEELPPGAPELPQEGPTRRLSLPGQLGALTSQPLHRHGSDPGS

SMILES | hERG current change (%, negative = inhibition) at 1uM [%]
CCOCC(=O)Nc1ccc([N+](=O)[O-])cc1Cl | 14.3
CN(C)CCNc1oc(COc2ccc(-c3ccccc3)cc2)nc1C#N | 2.52
COC(=O)c1ccc(C(=O)N2CCCC(CNC(=O)c3ccc(F)cc3)C2)cc1 (stereo not drawn) | 8.52
Cc1ccccc1NC(=O)NCCCN1CCN(C)CC1 | 14.9
COc1ccc(C2C3=C(CC(C)(C)CC3=O)Oc3ncn4nc(-c5cccnc5)nc4c32)cc1 (stereo not drawn) | -4.23
C=CCn1c(OCc2ccccc2)n[nH]c1=S | 15.9
Cc1cc(/C=C(/C#N)c2cccc(F)c2)c(C)n1-c1cccnc1 | 8.11
Cc1cccc(-c2cccc(NC(=O)C3CCCN(C(=O)c4cccnc4)C3)c2)c1 (stereo not drawn) | -6.49
C=CCNCCOc1ccc(C)cc1[N+](=O)[O-].O=C(O)C(=O)O | -5.64
COc1cccc(CNC(=O)c2nnn(CC(=O)Nc3ccc(Br)cc3)c2N)c1 | 17
COc1ccc(CCNC(=O)C2CCC(=O)N2S(=O)(=O)c2ccc(C)cc2)cc1 (stereo not drawn) | 15.8
CCOC(=O)C1CCN(C(=O)c2cc3ccccc3oc2=O)CC1 | 9.75
CC(C)n1c(SCC(=O)Nc2nc3ccccc3s2)nc2c1c(=O)n(C)c(=O)n2C | 17.3
Cc1ccccc1OCC(=O)NCCCNC(=O)c1cccnc1 | 8.36
CCC1(C)Cc2ccccc2-c2nc(NN)[nH]c(=O)c21 (stereo not drawn) | 8.94
COc1cc(/C=C/C(=O)OCC(=O)NC(=O)NC(C)C)ccc1O | 8.68
CCOC(=O)c1c(NC2=NS(=O)(=O)c3ccccc32)sc2c1CCC(C)C2 (stereo not drawn) | 17.9
CCc1ccc(NC(=O)C(=O)N/N=C(\C)CC(=O)Nc2ccc(OC)cc2)cc1 | 8.29
Cc1cccc(/C=N\NC(=O)c2ccc(Cl)cc2)c1O | 25.8
O=C(Cn1cnc2sc3c(c2c1=O)CCCC3)NCCCC(=O)N1CCC2(CC1)OCCO2 | -4.84
CN(CC(=O)Nc1cccc2c1CCCC2)S(=O)(=O)c1ccc(Cl)cc1 | -0.147
O=C(CSc1nc2ccccc2c(=O)[nH]1)N1CCOCC1 | 6.99
CN1CCN(c2ccc(NC(=O)c3ccc4c(c3)OCO4)cc2)CC1 | -0.282

SMILES | hERG current change (%, negative = inhibition) at 1uM [%]
CC(C)COC(=O)Nc1ccc(C(=O)O)cc1 | 8.12
CCN(CC)S(=O)(=O)c1ccc(C(=O)Nc2ccc(C(F)(F)F)n(C)c2=O)cc1 | 15
COc1ccc(NS(=O)(=O)c2cc(NC(=O)c3cccs3)ccc2N2CCCC2)cc1 | 1.54
Cc1ccc(NC(=O)C(NC2CCCC2)c2ccccc2)cc1Cl (stereo not drawn) | 14.6
Cc1ccccc1C(=O)N1CCC(C(=O)OCc2nc(N)nc(Nc3ccccc3)n2)CC1 | -6.96
Cc1ccc(Cn2ccc(-c3cnc(-c4ccccc4)s3)n2)cc1 | 16.4
O=[N+]([O-])c1nn(-c2ccc3c(c2)OCCO3)n(O)c1=NCc1ccc(F)cc1 | 10.7
O=C(O)c1ccc(NS(=O)(=O)/C=C/c2ccccc2)cc1 | 11.9
CCc1ccc2[nH]c3nc(SCc4nnc(-c5ccc(C)cc5)o4)nnc3c2c1 | 12.7
O=C(COC(=O)c1cncc(Br)c1)Nc1nc(-c2ccc(F)cc2)cs1 | 7.12
CC1=C(C#N)C(C(F)(F)F)(C(F)(F)F)N=C(c2ccco2)N1 | 9.8
COc1ccc(-c2nc(-c3ccccc3)nc(Cl)c2C#N)cc1 | 5.24
CC1(C)CC(=O)C2=C(C1)Oc1ncn(Cc3ccco3)c(=N)c1C2c1ccccc1 (stereo not drawn) | -2.87
CC1=CC(=O)C2=C(C)C[C@H](O)[C@@H]3[C@H](OC(=O)[C@H]3C)[C@@H]12.O | 14.5
Nc1ccccc1SCc1cn2ccccc2n1 | -13.4
Cc1ccc(NNC(=O)c2cc(C)on2)c(C)c1 | 7.41
CC(=O)Nc1cccc(C(=O)Nc2ccc(S(=O)(=O)NC3=NCCCCC3)cc2)c1 | 25.3
O=C(NCC1CCCO1)c1cccc(S(=O)(=O)Nc2ccc(SC(F)F)cc2)c1 (stereo not drawn) | 3.27
CC(C)(C)n1ncc2c(=O)n(Cc3ccc(Cl)cc3)cnc21 | 19.1
COc1ccc(CN=C2NC(=O)CC(C(=O)Nc3ccc(F)cc3)S2)cc1 (stereo not drawn) | -3.12
C[C@@H](NC(=O)c1nc[nH]c1C(=O)N1CCc2ccccc2C1)c1ccccc1 | 6.7
O=C(CC1C(=O)NCCN1Cc1ccccc1)NCCN1CCCCC1=O (stereo not drawn) | 15.3
